# Measured values taken from the supplement of paper PMC8728848.
# Some of the results follow.
# B1: cupB6 (Pseudomonas aeruginosa), Q02SP7 (protein)
# chain: MSMRLFPGRVSLRRRPGAQARQALVLGLCCLTGGQAWALNEVALNCSFGNGKGLPWRVVNELTSGTAKGTVLFARPVSLFLSYKPQASQEAHELVLGGNWSGVGYPGPYGTVASDVKGIGYRISVDAQDGVKRVIPVDNQPHALDKRVTSFSGSTTSDYLQELVLTVDPGELPAGDLKVTSVSGSATLNLWAVDRLKGEASIGSVLAVPADNYPTGVCRKPYSLIGPASIAIGGGPPPPPIPKKCKVEVGREINVKLGSVALKNFPRVNDTSTERSFDISLSECAALAKPEIAFRDKYVSAQQADPTILSLKSGGAAGFGIVVKNGLDQQRIRFDGTPYPMRRVGDSADLPLSAAYIRIGAEGELKAGVADGAAEFTFTFP
# What was measured:
# Test in all cases: glycan array binding signal (z-score within array); higher = stronger binding
# Settings in all cases: glycan notation: IUPAC condensed, linker removed
# [1] = target: Neu5Ac(a2-3)Gal(b1-4)[Fuc(a1-3)]GlcNAc(b1-3)Gal
# Outline: (§1)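 From the Consortium for Functional Glycomics database, 3228 arrays were curated, keeping only those whose protein sequence was available. Binding is given as a within-array Z-score averaged across arrays sharing a protein sequence and across linkers. Negative Z-scores can be read as non-binding.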
# [2] = target: Neu5Ac(a2-3)Gal(b1-4)[Fuc(a1-3)]GlcNAc(b1-3)Gal(b1-4)GlcNAc
# Outline: as §1
# [3] = target: Neu5Ac(a2-3)Gal(b1-4)[Fuc(a1-3)]GlcNAc(b1-3)Gal(b1-4)[Fuc(a1-3)]GlcNAc(b1-3)Gal(b1-4)[Fuc(a1-3)]GlcNAc
# Outline: as §1
# [4] = target: Neu5Ac(a2-3)Gal(b1-4)[Fuc(a1-3)]GlcNAc(b1-3)GalNAc
# Outline: as §1
# [5] = target: Neu5Ac(a2-3)Gal(b1-4)[Fuc(a1-3)]GlcNAc(b1-6)[Gal(b1-3)]GalNAc
# Outline: as §1
# [6] = target: Neu5Ac(a2-3)Gal(b1-4)[Fuc(a1-3)]GlcNAc(b1-6)[Neu5Ac(a2-3)Gal(b1-3)]GalNAc
# Outline: as §1
# [7] = target: Neu5Ac(a2-3)Gal(b1-4)[Fuc(a1-3)]GlcNAc6S
# Outline: as §1
# [8] = target: Neu5Ac(a2-3)Gal6S(b1-4)GlcNAc
# Outline: as §1
# [9] = target: Neu5Ac(a2-3)Gal6S(b1-4)[Fuc(a1-3)]GlcNAc
# Outline: as §1
# [10] = target: Neu5Ac(a2-3)GalNAc
# Outline: as §1
# [11] = target: Neu5Ac(a2-3)GalNAc(b1-4)GlcNAc
# Outline: as §1
# [12] = target: Neu5Ac(a2-3)[GalNAc(b1-4)]Gal(b1-4)Glc
# Outline: as §1
# [13] = target: Neu5Ac(a2-3)[GalNAc(b1-4)]Gal(b1-4)GlcNAc
# Outline: as §1
# [14] = target: Neu5Ac(a2-3)[GalNAc(b1-4)]Gal(b1-4)GlcNAc(b1-3)GalNAc
# Outline: as §1
# [15] = target: Neu5Ac(a2-3)[Neu5Ac(a2-6)]GalNAc
# Outline: as §1
# [16] = target: Neu5Ac(a2-6)Gal
# Outline: as §1
# [17] = target: Neu5Ac(a2-6)Gal(b1-4)Glc
# Outline: as §1
# [18] = target: Neu5Ac(a2-6)Gal(b1-4)GlcNAc
# Outline: as §1
# [19] = target: Neu5Ac(a2-6)Gal(b1-4)GlcNAc(b1-2)Man(a1-3)Man(b1-4)GlcNAc(b1-4)GlcNAc
# Outline: as §1
# [20] = target: Neu5Ac(a2-6)Gal(b1-4)GlcNAc(b1-2)Man(a1-3)[Gal(b1-4)GlcNAc(b1-2)Man(a1-6)]Man(b1-4)GlcNAc(b1-4)GlcNAc
# Outline: as §1
# [21] = target: Neu5Ac(a2-6)Gal(b1-4)GlcNAc(b1-2)Man(a1-3)[GlcNAc(b1-2)Man(a1-6)]Man(b1-4)GlcNAc(b1-4)GlcNAc
# Outline: as §1
# [22] = target: Neu5Ac(a2-6)Gal(b1-4)GlcNAc(b1-2)Man(a1-3)[GlcNAc(b1-2)Man(b1-4)GlcNAc(b1-2)Man(a1-6)]Man(b1-4)GlcNAc(b1-4)GlcNAc
# Outline: as §1
# [23] = target: Neu5Ac(a2-6)Gal(b1-4)GlcNAc(b1-2)Man(a1-3)[Man(a1-6)]Man(b1-4)GlcNAc(b1-4)GlcNAc
# Outline: as §1
# [24] = target: Neu5Ac(a2-6)Gal(b1-4)GlcNAc(b1-2)Man(a1-3)[Neu5Ac(a2-6)Gal(b1-4)GlcNAc(b1-2)Man(a1-6)]Man(b1-4)GlcNAc(b1-4)GlcNAc
# Outline: as §1
# [25] = target: Neu5Ac(a2-6)Gal(b1-4)GlcNAc(b1-2)Man(a1-6)Man(b1-4)GlcNAc(b1-4)GlcNAc
# Outline: as §1
# [26] = target: Neu5Ac(a2-6)Gal(b1-4)GlcNAc(b1-2)Man(a1-6)[Gal(b1-4)GlcNAc(b1-2)Man(a1-3)]Man(b1-4)GlcNAc(b1-4)GlcNAc
# Outline: as §1
# [27] = target: Neu5Ac(a2-6)Gal(b1-4)GlcNAc(b1-2)Man(a1-6)[GlcNAc(b1-2)Man(a1-3)]Man(b1-4)GlcNAc(b1-4)GlcNAc
# Outline: as §1
# [28] = target: Neu5Ac(a2-6)Gal(b1-4)GlcNAc(b1-2)Man(a1-6)[Man(a1-3)]Man(b1-4)GlcNAc(b1-4)GlcNAc
# Outline: as §1
# [29] = target: Neu5Ac(a2-6)Gal(b1-4)GlcNAc(b1-3)Gal(b1-3)GlcNAc
# Outline: as §1
# [30] = target: Neu5Ac(a2-6)Gal(b1-4)GlcNAc(b1-3)Gal(b1-4)GlcNAc
# Outline: as §1
# [31] = target: Neu5Ac(a2-6)Gal(b1-4)GlcNAc(b1-3)Gal(b1-4)GlcNAc(b1-3)Gal(b1-4)GlcNAc
# Outline: as §1
# [32] = target: Neu5Ac(a2-6)Gal(b1-4)GlcNAc(b1-3)Gal(b1-4)[Fuc(a1-3)]GlcNAc(b1-3)Gal(b1-4)[Fuc(a1-3)]GlcNAc
# Outline: as §1
# [33] = target: Neu5Ac(a2-6)Gal(b1-4)GlcNAc(b1-3)GalNAc
# Outline: as §1
# [34] = target: Neu5Ac(a2-6)Gal(b1-4)GlcNAc6S
# Outline: as §1
# [35] = target: Neu5Ac(a2-6)GalNAc
# Outline: as §1
# [36] = target: Neu5Ac(a2-6)GalNAc(b1-4)GlcNAc
# Outline: as §1
# [37] = target: Neu5Ac(a2-6)GlcNAc(b1-4)GlcNAc
# Outline: as §1
# [38] = target: Neu5Ac(a2-6)GlcNAc(b1-4)GlcNAc(b1-4)GlcNAc
# Outline: as §1
binder,measurement,setting,value
B1,glycan array binding signal (z-score),[1],-0.184
same,glycan array binding signal (z-score),[2],0.009
same,glycan array binding signal (z-score),[3],-0.235
same,glycan array binding signal (z-score),[4],0.376
same,glycan array binding signal (z-score),[5],0.16
same,glycan array binding signal (z-score),[6],0.091
same,glycan array binding signal (z-score),[7],-0.239
same,glycan array binding signal (z-score),[8],0.086
same,glycan array binding signal (z-score),[9],-0.119
same,glycan array binding signal (z-score),[10],-0.166
same,glycan array binding signal (z-score),[11],-0.177
same,glycan array binding signal (z-score),[12],-0.157
same,glycan array binding signal (z-score),[13],0.036
same,glycan array binding signal (z-score),[14],0.089
same,glycan array binding signal (z-score),[15],-0.129
same,glycan array binding signal (z-score),[16],0.026
same,glycan array binding signal (z-score),[17],0.022
same,glycan array binding signal (z-score),[18],-0.15
same,glycan array binding signal (z-score),[19],0.058
same,glycan array binding signal (z-score),[20],0.168
same,glycan array binding signal (z-score),[21],-0.034
same,glycan array binding signal (z-score),[22],-0.105
same,glycan array binding signal (z-score),[23],0.325
same,glycan array binding signal (z-score),[24],-0.095
same,glycan array binding signal (z-score),[25],-0.029
same,glycan array binding signal (z-score),[26],-0.184
same,glycan array binding signal (z-score),[27],0.075
same,glycan array binding signal (z-score),[28],0.107
same,glycan array binding signal (z-score),[29],-0.021
same,glycan array binding signal (z-score),[30],-0.101
same,glycan array binding signal (z-score),[31],0.004
same,glycan array binding signal (z-score),[32],0.089
same,glycan array binding signal (z-score),[33],-0.009
same,glycan array binding signal (z-score),[34],-0.105
same,glycan array binding signal (z-score),[35],-0.142
same,glycan array binding signal (z-score),[36],0.015
same,glycan array binding signal (z-score),[37],-0.156
same,glycan array binding signal (z-score),[38],-0.265
